Screen size: about 350,000 compounds; about 990 (0.28%) were called active. The inconclusive results got no clear call from the source; some entries with a clear call stand among them for comparison. Calls follow the shape of the dose curve; as a rule, active = well fitted inhibition curve with a large enough effect; inconclusive = small, poorly fitted or top-dose-only effect; inactive = no such curve, though single readings can be large or run the other way. Potencies of inconclusive entries are doubtful fits and often do not repeat.
Target: Tyrosyl-DNA phosphodiesterase 1 (Homo sapiens) (UniProt Q9NUW8)
Chain of UniProt Q9NUW8 (Q9NUW8 whole entry, looked up): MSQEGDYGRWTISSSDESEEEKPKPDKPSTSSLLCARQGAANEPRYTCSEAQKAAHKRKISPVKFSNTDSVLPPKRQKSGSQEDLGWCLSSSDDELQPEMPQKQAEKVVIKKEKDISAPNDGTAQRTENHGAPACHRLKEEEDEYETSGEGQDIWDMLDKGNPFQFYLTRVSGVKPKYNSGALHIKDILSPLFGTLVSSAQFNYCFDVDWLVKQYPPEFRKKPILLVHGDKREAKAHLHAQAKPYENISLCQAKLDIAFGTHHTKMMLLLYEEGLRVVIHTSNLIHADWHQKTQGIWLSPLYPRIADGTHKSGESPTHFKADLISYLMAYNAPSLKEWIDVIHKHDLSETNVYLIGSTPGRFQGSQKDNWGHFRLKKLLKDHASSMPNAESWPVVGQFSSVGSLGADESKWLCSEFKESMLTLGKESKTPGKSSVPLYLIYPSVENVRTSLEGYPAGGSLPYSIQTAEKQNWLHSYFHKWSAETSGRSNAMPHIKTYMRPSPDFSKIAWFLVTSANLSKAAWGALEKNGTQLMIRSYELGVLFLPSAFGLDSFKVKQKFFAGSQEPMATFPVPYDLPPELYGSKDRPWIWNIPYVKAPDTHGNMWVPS
Assay: qHTS Assay for Inhibitors of Tyrosyl-DNA Phosphodiesterase (TDP1); also: nearly all actives have a fitted effect of over 40% in size
Details: recombinant TDP1, AlphaScreen DNA substrate cleavage; series mostly up to 130 µM
In short: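 Recombinant E. coli-expressed Tdp1 (1 nM) preincubated with compound 15 min at RT, then 5'-biotin/3'-phosphotyrosine-FITC DNA substrate (15 nM) added for 5 min. AlphaScreen beads (10 ug/ml) added, 10 min RT; tyrosine-FITC cleavage read as signal loss.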
Potency is read from the fitted curve at half-maximal effect; tags tell the direction and shape of the fitted curve.

Q: For COc1ccc(-n2cc(CNCC3CC(=O)N(C4CC4)C3)c(-c3ccccc3Cl)n2)cc1 (configuration not stated), which Potency is on record?
A: The Potency was “inactive”.

Q: O=C(Nc1ccc(Cl)cc1)N1CC=CCC1 was tested. Which Potency did it give?
A: The Potency was inconclusive: 100 µM [inhibitor, single point].

Q: Which Potency does the source give for O=C(NC1CCS(=O)(=O)C1)c1ccc(Br)s1 (configuration not stated) here?
A: The Potency was active: 100 µM.

Q: For O=C(OCC(F)(F)C(F)F)c1ccccc1C(=O)Oc1ccc(F)cc1F, which Potency is on record?
A: Its Potency is inconclusive: 22.4 µM [inhibitor, full curve].

Q: With CC(=O)CC(=O)Nc1ccc(Cl)cn1 as the compound, how does the Potency read?
A: Its Potency is inconclusive: 89.1 µM [inhibitor, single point].

Q: How did the Potency turn out when O=C(COC(=O)CCC1CCCC1)Nc1ccccc1Br was run?
A: The Potency was active: 79.4 µM.

Q: With CCN(CC)c1nc2cc(OC)ccc2cc1C#N as the compound, how does the Potency read?
A: Its Potency is inconclusive: 15.8 µM [inhibitor, full curve].

Q: Which Potency does the source give for O=S1(=O)N=C(Oc2cccc(-c3ccccc3)c2)c2ccccc21 here?
A: The Potency was “inactive”.

Q: For O=C1CCCC2=C1C(c1ccco1)Nc1ccc3ccccc3c12 (configuration not stated), which Potency is on record?
A: The Potency was inconclusive: 2.51 µM [inhibitor, full curve].

Q: For COc1cccc(-c2nc3ccccc3s2)c1, which Potency is on record?
A: The Potency was inconclusive: 22.4 µM [inhibitor, full curve].

Q: How did the Potency turn out when CSc1nc(NCCOCCO)c2sc3nc(-c4ccco4)c4c(c3c2n1)CCC4 was run?
A: The Potency was active: 35.5 µM.

Q: How did the Potency turn out when O=c1nc2s/c(=C\c3ccco3)c(=O)n2nc1Cc1ccc(F)cc1 was run?
A: Its Potency is inconclusive: 3.98 µM [inhibitor, full curve].

Q: With CCOC(=O)c1c(NC(=O)c2ccc(C)cc2)sc2c1CC(C)(C)OC2 as the compound, how does the Potency read?
A: Its Potency is inconclusive: 20 µM [inhibitor, partial curve].

Q: For CNC(=O)C1CCC(Cn2c(=O)c3sccc3n(Cc3cc(C)ccc3C)c2=O)CC1 (configuration not stated), which Potency is on record?
A: The Potency was “inactive”.

Q: How did the Potency turn out when COc1ccc(N=Cc2c(O)ccc3ccccc23)cc1 was run?
A: The Potency was inconclusive: 35.5 µM [inhibitor, single point].

Q: With Cc1c(C(=O)NCc2ccc(Cl)cc2)sc2nc3n(c(=O)c12)CCCC3 as the compound, how does the Potency read?
A: Its Potency is “inactive”.

Q: For CC[C@H](C)/C=C(C)/C=C/C1=CC2=CC(=O)[C@]3(C)OC(=O)[C@@H](C(C)=O)[C@@H]3C2=CO1, which Potency is on record?
A: The Potency was “inactive”.

Q: CCC(O)(CC)C(=O)NN(C(=O)CCl)c1ccccc1 was tested. Which Potency did it give?
A: Its Potency is “inactive”.

Q: COC(=O)c1sccc1S(=O)(=O)N(CC(=O)NCc1ccccc1)c1ccccc1 was tested. Which Potency did it give?
A: Its Potency is “inactive”.

Q: With O=C(NCCCSc1ccccc1)c1cc(Cl)ccc1O as the compound, how does the Potency read?
A: Its Potency is inconclusive: 56.2 µM [inhibitor, single point].

Q: How did the Potency turn out when COc1cccc(Nc2nnc(-c3cc4ccc(O)cc4oc3=O)s2)c1 was run?
A: Its Potency is inconclusive: 3.16 µM [inhibitor, single point].

Q: C=CCn1c(COc2cc(C)ccc2C(C)C)nnc1SCC(=O)c1c(N)n(C)c(=O)n(C)c1=O was tested. Which Potency did it give?
A: The Potency was inconclusive: 17.8 µM [inhibitor, single point].
